Data reported in the RNAGym collection of RNA variant scans (doi:10.7554/elife.90254).
Read counts are not given, so values of variants with three or more changes are uncertain.

B1: LINE1-full (parent)
chain: UACGUAGGUGGUUUUCCCCUGAUAGUGCUAAGGGGGCCUGGAAGUUUGGACUGGGCAGAGCUCAACACAGCGUGGCAAAGUGGCUGUGGCUAGACUGCCUCUCUGGAUUCCUCGUCACUCAGCAGGGCAUCUCUGAGAGAAAUGCC

Variants of: B1
Assay: self-cleavage, relative activity (ratio to wild type); higher = more cleavage; in vitro, sequencing; the parent is a self-cleaving ribozyme

Variant	self-cleavage
UACGUAGGUGGUUUUCCCCUGAUAGUGCUAAGGGGGCCUGGAAGUUUGGACUGGGCAGAGCUCAACACUGCGUGGCAAAGUGGCUGUGGCUGGACUGCCUCUCUGGAUUCCUCGUUACUCAGCAGGGCAUCUCUGAGAGAAAUGCC [A69U A92G C116U]	0.04
UACGUAGGUGGUUUUCCCCUGAUAGUGCUAAGGGGGCCUGGAAGUUUGGACUGGGCAGAGCUCAACACUGCGUGGCAAAGUGGCUGUGGCUAGACUGCCUCUCUGGAUUCCUCGACACUCAGCAGGGCAUCUCUGAGAGGAAUGCC [A69U U115A A140G]	0
UACGUAGGUGGUUUUCCCCUGAUAGUGCUAAGGGGGCCUGGAAGUUUGGACUGGGCAGAGCUCAACACUGCGUGGCAAAGUGACUGUGGCUAGACUGCCUCUCUGGAUUCCUCGUCACUCAGCAAGGCAUCUCUGAGAGAAAUGCC [A69U G83A G125A]	0.03
UACGUAGGUGGUUUUCCCCUGAUAGUGCUAAGGGGGCCUGGAAGUUUGGACUGGGCAGAGCUCAACACUGCGUGGCAAAGUGGCUGUGGCUAGACUGCCUCUCUGGAUUCCUCGUCACUCAGCGGAGCAUCUCUGAGAGAAAUGCC [A69U A124G G126A]	0.04
UACGUAGGUGGUUUUCCCCUGAUAGUGCUAAGGGGGCCUGGAAGUUUGGACUGGGCAGAGCUCAACACGGCGUGGCAAAGUGGCUGUGGCUAGACGGCCUCUCUGGAUUCCUCGACACUCAGCAGGGCAUCUCUGAGAGAAAUGCC [A69G U96G U115A]	0.13
UACGUAGGUGGUUUUCCCCUGAUAGUGCUAAGGGGGCCUGGAAGUUUGGACUGGGCAGAGCUCAACACUGCGUGGCAAAGUGGCUGUGGCUAGACUGCCCCUCUGGAUUCCUCGUCACUCAGCAGGGCAUCCCUGAGAGAAAUGCC [A69U U100C U132C]	0.1
UACGUAGGUGGUUUUCCCCUGAUAGUGCUAAGGGGGCCUGGAAGUUUGGACUGGGCAGAGCUCAACACGGCGUGGCAAAGUGGCCGUGGCUAGGCUGCCUCUCUGGAUUCCUCGUCACUCAGCAGGGCAUCUCUGAGAGAAAGGCC [A69G U85C A94G U143G]	0
UACGUAGGUGGUUUUCCCCUGAUAGUGCUAAGGGGGCCUGGAAGUUUGGACUGGGCAGAGCUCAACACGGCGUGGCAAAGUGGCUGUGGCUAGACUGCCCCUCUGGAUUCCUCGUCACUCAGCAGGGCAUCUCUGAGAGGAAUGCC [A69G U100C A140G]	0.77
UACGUAGGUGGUUUUCCCCUGAUAGUGCUAAGGGGGCCUGGAAGUUUGGACUGGGCAGAGCUCAACACGGCGUGGCAAAGUGGCUGUGGCUAGACAGCCUCUCUGGAUUCCUCGUCACUCAGCAGGGCAUCUCUGAGAGAAACGCC [A69G U96A U143C]	0.03
UACGUAGGUGGUUUUCCCCUGAUAGUGCUAAGGGGGCCUGGAAGUUUGGACUGGGCAGAGCUCAACACUGCGUGGCGAAGUGGCUGUGGCUAGACUGCCUCUCUGGAUUCCUCGUCACCCAGCAGGGCAUCUCUGAGGGAAAUGCC [A69U A77G U119C A138G]	0.08
UACGUAGGUGGUUUUCCCCUGAUAGUGCUAAGGGGGCCUGGAAGUUUGGACUGGGCAGAGCUCAACACUGCGUGGCAAAGUGGCUGUGGCUAGACCGCCUCUCUGGAUUCUUCGUCACUCAGCAGGGCAUCUCUGAGAGAAAUGCC [A69U U96C C111U]	0.02
UACGUAGGUGGUUUUCCCCUGAUAGUGCUAAGGGGGCCUGGAAGUUUGGACUGGGCAGAGCUCAACACGGCGUGGCAAAGUGGCUGUGGCUAGACUGCCUCUCUAGAUUCCUCGUCACUCAGCAGGGCAUCUCUGAGAGUAAUGCC [A69G G105A A140U]	0.01
UACGUAGGUGGUUUUCCCCUGAUAGUGCUAAGGGGGCCUGGAAGUUUGGACUGGGCAGAGCUCAACACGGCGUGGCAAAGUGGCUGUGGCUAGACUGCCUCUCCGGAUUCCUCGUCACACAGCAGGGCAUCUCUGAGAGAAAUGCC [A69G U104C U119A]	0.67
UACGUAGGUGGUUUUCCCCUGAUAGUGCUAAGGGGGCCUGGAAGUUUGGACUGGGCAGAGCUCAACACGGCGAGGCAGAGUGGCUGAGGCUAGACUGCCUCUCUGGAUUCCUCGUCACUCAGCAGGGCAUCUCUGAGAGAAAUGCC [A69G U73A A78G U87A]	0
UACGUAGGUGGUUUUCCCCUGAUAGUGCUAAGGGGGCCUGGAAGUUUGGACUGGGCAGAGCUCAACACGGCGUGGCAAAGUGGCUGUGGCUAGACCGCCUCUCUGGAUUCCUCGUCACUCAGCAGGGCAUCUCUGAGAGAGAUGCC [A69G U96C A141G]	0
UACGUAGGUGGUUUUCCCCUGAUAGUGCUAAGGGGGCCUGGAAGUUUGGACUGGGCAGAGCUCAACACGGCGUGGCAAAGUGGCUGUGGCUAGACUGCCUCUCUGGACUCCUCGUCACUCAGCAGGGCAUCUCUGAGAGAGAUGCC [A69G U108C A141G]	0.26
UACGUAGGUGGUUUUCCCCUGAUAGUGCUAAGGGGGCCUGGAAGUUUGGACUGGGCAGAGCUCAACACUGCGUGGCAAAGUGGCUGUGGCUAGACUGCCUCUCUGGUUUCCUCGUCACUCAUCAGGGCAUCUCUGAGAGAAAUGCC [A69U A107U G122U]	0.04
UACGUAGGUGGUUUUCCCCUGAUAGUGCUAAGGGGGCCUGGAAGUUUGGACUGGGCAGAGCUCAACACUGCGUGGCAAAGUGGCUGUGGCUAGACCGCCUCUCUGGAUUCCUCGUCACUCAGCAGGGCAUCUCUGAGAGGAAUGCC [A69U U96C A140G]	0.02
UACGUAGGUGGUUUUCCCCUGAUAGUGCUAAGGGGGCCUGGAAGUUUGGACUGGGCAGAGCUCAACACGGCGUGGCAAAGUGGCUGUGGCUAGACUGCCUCUCUGGAUUCCCCGUCACUCAGCAGGGCAUCUCUGAGAGAAGUGCC [A69G U112C A142G]	0
UACGUAGGUGGUUUUCCCCUGAUAGUGCUAAGGGGGCCUGGAAGUUUGGACUGGGCAGAGCUCAACACUGCGUGGCAAAGUGGCUGUGGCUAGACUGCCUCUCUGGAUUCCUCGUCACUCAGCAGGGCAUCUAUGAGAGAAACGCC [A69U C133A U143C]	0.04

Variant	self-cleavage
UACGUAGGUGGUUUUCCCCUGAUAGUGCUAAGGGGGCCUGGAAGUUUGGACUGGGCAGAGCUCAACACGGCGUGGCAAAGUGGCUGUGGCUAGACUGCCUCUCUGGAUCCCUCGUCACUCGGCAGGGCAUCUCUGAGAGAAAUGCC [A69G U109C A121G]	0.54
UACGUAGGUGGUUUUCCCCUGAUAGUGCUAAGGGGGCCUGGAAGUUUGGACUGGGCAGAGCUCAACACGGCGUGGCAAAGUGGCUGUGGCCAGACUGCCCCUCUGGAUUCCUCGUCACUCAGCAGGGCAUCUCUGAGAGAAAUGCC [A69G U91C U100C]	0
UACGUAGGUGGUUUUCCCCUGAUAGUGCUAAGGGGGCCUGGAAGUUUGGACUGGGCAGAGCUCAACACUGCGUGGCAAAGUGGCUGUGGCUAGACUGCCCCUCUGGAUUCCUCGUCACUCAGCAGGGCAUCUCUGUGAGAAAUGCC [A69U U100C A136U]	0.03
UACGUAGGUGGUUUUCCCCUGAUAGUGCUAAGGGGGCCUGGAAGUUUGGACUGGGCAGAGCUCAACACUGCGUGGCAAAGUGGCCGUGGCUAGACUGCCUCUCUGGAUUCCUCGUCACUCAGCGGGGCAUCCCUGAGAGAAAUGCC [A69U U85C A124G U132C]	0.1
UACGUAGGUGGUUUUCCCCUGAUAGUGCUAAGGGGGCCUGGAAGUUUGGACUGGGCAGAGCUCAACACUGCGUGGCAAAGUGGCUGUGGCUAGACUGCCUCUCUGGGUUCCUCGUCACUCAGCAGGGCAUCUCUGAGAGAAAUUCC [A69U A107G G144U]	0.05
UACGUAGGUGGUUUUCCCCUGAUAGUGCUAAGGGGGCCUGGAAGUUUGGACUGGGCAGAGCUCAACACUGCGUGGCAAAAUGGCUGUGGCUAGACUGCCUCUCUGGAUUCCUCGUCACUCAGCAGGGCAUCCCUGAGAGAAAUGCC [A69U G80A U132C]	0
UACGUAGGUGGUUUUCCCCUGAUAGUGCUAAGGGGGCCUGGAAGUUUGGACUGGGCAGAGCUCAACACGGCGUGGCAAAGUGGCUGUGGCUAGACUGCCUCUCUGGAUUCCUCGUCACUCAGCAGGGCAUCUCAGAGAGACAUGCC [A69G U134A A141C]	0.17
UACGUAGGUGGUUUUCCCCUGAUAGUGCUAAGGGGGCCUGGAAGUUUGGACUGGGCAGAGCUCAACACGGCGUGGCAAAGUGGCUGUGGCUAGACUGCCUCUCUGGAUUCCUCGUCACUCAGCAGGGCAUCUCAGAGAGAAAAGCC [A69G U134A U143A]	0.53
UACGUAGGUGGUUUUCCCCUGAUAGUGCUAAGGGGGCCUGGAAGUUUGGACUGGGCAGAGCUCAACACUGCGUGGCAAGGUGGCUGUGGCUAGACUGCCUCCCUGGAUUCCUCGUCACUCAGCAGGGCAUCUCUGAGAGAAAUGCC [A69U A79G U102C]	0.04
UACGUAGGUGGUUUUCCCCUGAUAGUGCUAAGGGGGCCUGGAAGUUUGGACUGGGCAGAGCUCAACACUGCGUGGCAAAGUGGCUGUGGCUAGACCGCCUCUCUGGAUUCCUCGUCGCUCAGCAGGGCAUCUCUGAGAGAGAUGCC [A69U U96C A117G A141G]	0.13
UACGUAGGUGGUUUUCCCCUGAUAGUGCUAAGGGGGCCUGGAAGUUUGGACUGGGCAGAGCUCAACACUGCGUGGCAAAGUGGCUGUGGCUAGACUGCCUCUCUGGAUUCCCCGUCACUCAGCAGGGCAUCUCUGAGAGAGAUGCC [A69U U112C A141G]	0
UACGUAGGUGGUUUUCCCCUGAUAGUGCUAAGGGGGCCUGGAAGUUUGGACUGGGCAGAGCUCAACACGGCGUGGCAAAGUGGCUGGGGCUAGACUGCCUCUCUGGAUUCCUCGUCACUCAGCAGGGCAUCUCUGAGGGAAAUGCC [A69G U87G A138G]	0
UACGUAGGUGGUUUUCCCCUGAUAGUGCUAAGGGGGCCUGGAAGUUUGGACUGGGCAGAGCUCAACACGGCGCGGCAGAGUGCCUGUGGCUAGACUGCCUCUCUGGAUUCCUCGUCACUCAGCAGGGCAUCUCUGAGUGAAAUGCC [A69G U73C A78G G83C A138U]	0
UACGUAGGUGGUUUUCCCCUGAUAGUGCUAAGGGGGCCUGGAAGUUUGGACUGGGCAGAGCUCAACACGGCGUGGCAAAGUGGCUGUGGCCAGACUGCCUCUCUGGAUUCCUCGUCACUCAGCAGGGCAUCUCCGAGAGAAAUGCC [A69G U91C U134C]	0
UACGUAGGUGGUUUUCCCCUGAUAGUGCUAAGGGGGCCUGGAAGUUUGGACUGGGCAGAGCUCAACACGGCGUGGCAAAGUGGCUGGGGCUAGACUGCCUCUCUGGAUUCCUCGUCACUCAACAGGGCAUCUCUGAGAGAAAUGCC [A69G U87G G122A]	0.1
UACGUAGGUGGUUUUCCCCUGAUAGUGCUAAGGGGGCCUGGAAGUUUGGACUGGGCAGAGCUCAACACGGCGUGGCAAAGUGGCUGUGGCUAGACCGCCUCUCUGGAUUCCUCGCCACUCAGCAGGGCAUCUCUGAGAGGAAUGCC [A69G U96C U115C A140G]	0
UACGUAGGUGGUUUUCCCCUGAUAGUGCUAAGGGGGCCUGGAAGUUUGGACUGGGCAGAGCUCAACACUGCGUGGAAAAGUGGCUGUGGCUAGACUGCCUCUCUGGGUUCCUCGUCACUCAGCAGGGCAUCUCUGAGAAAAAUGCC [A69U C76A A107G G139A]	0.02
UACGUAGGUGGUUUUCCCCUGAUAGUGCUAAGGGGGCCUGGAAGUUUGGACUGGGCAGAGCUCAACACUGCGUGGCAAAGUGGCUGUGGCUGGACUGCCCCUCUGGGUUCCUCGUCACUCAGCAGGGCAUCUCUGAGAGAAAUGCC [A69U A92G U100C A107G]	0
UACGUAGGUGGUUUUCCCCUGAUAGUGCUAAGGGGGCCUGGAAGUUUGGACUGGGCAGAGCUCAACACUGCGUGGCAAAGUGGCUAUGGCUAGACUGCCUCUCCGGAUUCCUCGUCACUCAGCAGGGCAUCUCUGAGAGAAAUGCC [A69U G86A U104C]	0.03
